Over roughly 33,000 sequences, “E-score (-0.5 to 0.5)” has its median near -0.011; the highest 2% begin near 0.28. The list shows a part of the results.
biological target: T1, Gcr1 (UniProt P07261); experiment: PBM E-score (8-mer binding enrichment) (E-score (-0.5 to 0.5)); higher = stronger / more preferred TF binding; most listed sequences are background and not binding sites; details: protein concentration: 100 nM; construct: GST-full length
T1 sequence: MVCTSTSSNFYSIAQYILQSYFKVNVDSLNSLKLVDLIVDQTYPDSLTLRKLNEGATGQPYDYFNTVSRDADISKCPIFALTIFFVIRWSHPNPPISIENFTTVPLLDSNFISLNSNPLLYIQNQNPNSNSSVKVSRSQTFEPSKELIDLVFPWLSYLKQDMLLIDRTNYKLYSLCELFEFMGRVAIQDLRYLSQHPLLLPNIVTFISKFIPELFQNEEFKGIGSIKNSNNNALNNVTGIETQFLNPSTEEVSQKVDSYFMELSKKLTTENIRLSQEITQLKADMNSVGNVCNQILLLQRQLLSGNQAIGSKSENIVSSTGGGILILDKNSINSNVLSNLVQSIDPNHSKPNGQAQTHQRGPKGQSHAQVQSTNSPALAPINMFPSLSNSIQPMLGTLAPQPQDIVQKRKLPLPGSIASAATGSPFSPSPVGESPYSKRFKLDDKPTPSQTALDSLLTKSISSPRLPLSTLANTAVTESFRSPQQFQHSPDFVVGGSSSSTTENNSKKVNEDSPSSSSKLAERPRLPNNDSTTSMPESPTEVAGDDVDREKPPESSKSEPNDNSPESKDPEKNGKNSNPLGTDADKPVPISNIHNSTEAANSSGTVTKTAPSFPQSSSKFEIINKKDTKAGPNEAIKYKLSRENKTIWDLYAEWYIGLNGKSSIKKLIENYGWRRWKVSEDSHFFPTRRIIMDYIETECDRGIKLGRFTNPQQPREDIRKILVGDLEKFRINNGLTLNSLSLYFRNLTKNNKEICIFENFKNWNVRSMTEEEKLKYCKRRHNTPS
Outline: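 Each ungapped eight-base word and its reverse complement, pooled, received an E-score from the Universal PBM Analysis Suite. Underlying scans, normalised with masliner, recorded fluorescent anti-GST bound to GST-tagged yeast transcription factors. These were applied at about 100-200 nM to universal all-10-mer Agilent arrays double-stranded by primer extension.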

Sequence | PBM E-score
GGGAAGAC | -0.0109
AGGGATGG | -0.0985
CTGCACAG | -0.0453
AGACTCAG | -0.169
AGGACTGC | -0.272
CACCGATG | -0.0675
CCCGATTA | 0.0767
TATTGGGA | -0.02
GGAGGACC | -0.115
AGATTTTA | 0.0687
GCGAAGCA | -0.0597
CGCAGTTC | -0.0391
AGTAGCCC | 0.0181
AGTGGCAT | 0.193
CCACTAAG | 0.374
CTTCGGGC | 0.0503
GGTACTAC | -0.0297
ATTGACAG | -0.0534
GAAAGTCC | -0.203
AAATTAGA | 0.207
CTCGTTGA | -0.0777
TCCAATCA | 0.0477

Sequence | PBM E-score
CACCGGAA | 0.266
CCATGTGA | -0.091
GTATCCAA | 0.0892
GAATTCAC | 0.109
CAGCCGCA | 0.0862
GCAATCGA | -0.127
ATTACGCG | 0.245
ACGTCATG | -0.141
CGGGTAAC | -0.0187
ACCAGCGA | -0.0696
ATCCTCAA | 0.0657
ACCTTTGA | -0.051
ATGTAAAA | 0.0943
CCTTTCCC | -0.246
ACACCTAC | -0.0335
ATCAAGGA | 0.0581
ACCGACCA | -0.0984
AAAGATCA | 0.0261
CCGTTGAC | -0.121
ACCGTCTC | -0.0748
ATATTCAT | 0.0243
CATACCGG | 0.134

Sequence | PBM E-score
ATGCCTTC | -0.154
AGGGAGCG | 0.0432
AGCGGTTA | -0.0722
CTGGTGTA | -0.222
CCATCTCG | 0.00173
ACGATTGG | -0.0386
GGCTGGCA | 0.0387
AGAGAAGC | 0.084
AGTACTAC | -0.0858
GCTCTACA | -0.00164
ATGGATTG | -0.219
CTCTTATC | 0.121
CTTATCAA | 0.188
CAAGGTAA | 0.0839
AAAATCAG | 0.123
CTAAAAAA | 0.167
ATGCAAAT | 0.137
ATGAGTGC | -0.178
GATTTTAA | 0.0455
ACAACAGG | -0.0974
ATTCATAC | 0.0931
AACCATCA | -0.149

Sequence | PBM E-score
CCCGTGAC | -0.0432
AATCTCCT | -0.0108
AGGCGACG | 0.0988
GGGGACCC | 0.291
ATGGAGAG | -0.197
CGAGGCCA | -0.135
CATAGCTA | -0.095
ACTATATC | 0.0223
GTCGGATA | 0.0266
AGCGGAGA | -0.0664
AGTGTAAG | -0.146
CCCTAAGG | -0.13
ACAAGGGC | -0.134
CGCGGAAC | 0.0423
ACAGCCAA | 0.0234
GGCGACAA | 0.171
CAGGGCGC | 0.251
GATTGCGC | -0.13
TCAGTCAA | -0.149
AGAAGTAG | 0.206
